Test results published in BigSolDB 2.1.

Details: 298.15 K

Compound: COc1ccc2cc([C@H](C)C(=O)O)ccc2c1
- solubility (mole fraction) (in acetone): 0.047
- solubility (mole fraction) (in acetonitrile): 0.00598
- solubility (mole fraction) (in chlorobenzene): 0.00636
- solubility (mole fraction) (in chloroform): 0.0255
- solubility (mole fraction) (in cyclohexane): 7.5e-05
- solubility (mole fraction) (in ethanol): 0.0139
- solubility (mole fraction) (in ethyl acetate): 0.0244
- solubility (mole fraction) (in ethylene glycol): 0.00284
- solubility (mole fraction) (in isopropanol): 0.0126
- solubility (mole fraction) (in methanol): 0.0122
- solubility (mole fraction) (in n-heptane): 3.88e-05
- solubility (mole fraction) (in n-hexane): 3.2e-05
- solubility (mole fraction) (in n-pentane): 2.22e-05
- solubility (mole fraction) (in n-propanol): 0.0133
- solubility (mole fraction) (in tetrachloromethane): 0.00172
- solubility (mole fraction) (in toluene): 0.00347
